Laboratory results: a collection of fitness landscapes (doi:10.1016/j.celrep.2020.107928)
Whole data set: some 81,000 sequences, median “one-hybrid fitness for binding NBS DNA” near -0.1, cut for the highest 2% near 0.36. The list shows a part of the results.

B1: Caulobacter ParB omega fusion; a variant is named by its letters at X, in order, B8GW30 (parent)
chain: MESVVVGEPGMSEGRRGLGRGLSALLGEVDAAPAQAPGEQLGGSREAPIEILQRNPDQPRRTFREEDLEDLSNSIREKGVLQPILVRPSPDTAGEYQIVAGERAWRAAQRAGLKTVPIMVRELDDLAVLEIGIIENVQRADLNVLEEALSYKVLMEKFERTQENIAQTIGKSXSHVANXMRLLXLPDEVQSYLVSGELTAXHARAIAAAADPVALAKQIIEGGLSVRETEALARKAPNLSAGKSKGGRPPRVKDTDTQALESDLSSVLGLDVSIDHRGSTGTLTITYATLEQLDDLCNRLTRGI

Variants of: B1
Assay: one-hybrid fitness for binding NBS DNA (the Noc-binding site; scaled: cognate 1, non-cognate 0); higher = stronger binding
Details: with NBS DNA site
How it was run: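 Fitness is the rescaled log change in variant-to-wild-type read ratio, measured by Illumina sequencing of plasmids before and after bacterial one-hybrid selection. The scale puts cognate at 1 and non-cognate at 0. Selection of Caulobacter ParB libraries, four specificity codons randomised, took place in E. coli USO with a HIS3 reporter, site 19 bp from the promoter, over 48 hours at 37°C on M9-minus-histidine with 0.1 mM IPTG and 5 mM 3-AT.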

Row | Variant | one-hybrid fitness for binding NBS DNA
1 | IFVE | ≤ 0.2
2 | HLDI | ≤ 0.2
3 | SVDF | ≤ 0.2
4 | EKYS | ≤ 0.2
5 | YLTC | ≤ 0.2
6 | QIDV | ≤ 0.2
7 | WGTR | ≤ 0.2
8 | SFTW | ≤ 0.2
9 | LNFR | ≤ 0.2
10 | MARI | ≤ 0.2
11 | MTGN | ≤ 0.2
12 | PYIS | ≤ 0.2
13 | GMLS | ≤ 0.2
14 | LDLL | ≤ 0.2
15 | WKPK | ≤ 0.2
16 | PLHW | ≤ 0.2
17 | WYPV | ≤ 0.2
18 | QVTI | ≤ 0.2
19 | VSMI | ≤ 0.2
20 | DNFC | ≤ 0.2
21 | HDEG | ≤ 0.2
22 | GAYA | ≤ 0.2
23 | SETC | ≤ 0.2
24 | HHKQ | ≤ 0.2

Row | Variant | one-hybrid fitness for binding NBS DNA
25 | YYLW | ≤ 0.2
26 | GPHK | ≤ 0.2
27 | SYTT | ≤ 0.2
28 | NNLC | ≤ 0.2
29 | YYNV | ≤ 0.2
30 | VLNA | ≤ 0.2
31 | WGNL | ≤ 0.2
32 | WHQW | ≤ 0.2
33 | RCTT | 0.518
34 | CDNS | ≤ 0.2
35 | PMCY | ≤ 0.2
36 | LEGK | ≤ 0.2
37 | HKKC | ≤ 0.2
38 | SKHD | ≤ 0.2
39 | TLWL | ≤ 0.2
40 | SFTS | ≤ 0.2
41 | PEYD | ≤ 0.2
42 | MHMM | ≤ 0.2
43 | SDGG | ≤ 0.2
44 | KMHC | ≤ 0.2
45 | VRPY | ≤ 0.2
46 | PKFS | ≤ 0.2
47 | KNGS | ≤ 0.2
48 | YDSS | ≤ 0.2

Row | Variant | one-hybrid fitness for binding NBS DNA
49 | RWMI | ≤ 0.2
50 | PQTT | ≤ 0.2
51 | HGNS | ≤ 0.2
52 | LIVV | ≤ 0.2
53 | NMQG | ≤ 0.2
54 | RWKA | ≤ 0.2
55 | CCRN | ≤ 0.2
56 | VVKC | ≤ 0.2
57 | ETGS | ≤ 0.2
58 | LIFY | ≤ 0.2
59 | LYQD | ≤ 0.2
60 | KIKR | 0.239
61 | IYSG | ≤ 0.2
62 | TPWG | ≤ 0.2
63 | PSNS | ≤ 0.2
64 | QVKW | ≤ 0.2
65 | EQIM | ≤ 0.2
66 | AAFW | ≤ 0.2
67 | CFMR | ≤ 0.2
68 | MLCI | ≤ 0.2
69 | LDMS | ≤ 0.2
70 | TKMT | ≤ 0.2
71 | HGTF | ≤ 0.2
72 | DPVV | ≤ 0.2

Row | Variant | one-hybrid fitness for binding NBS DNA
73 | SGKH | ≤ 0.2
74 | SPKA | ≤ 0.2
75 | KFPA | ≤ 0.2
76 | PPAM | ≤ 0.2
77 | PIMT | ≤ 0.2
78 | KMES | ≤ 0.2
79 | AAPN | ≤ 0.2
80 | TTKR | 0.372
81 | HPVT | ≤ 0.2
82 | CMRM | ≤ 0.2
83 | PHVG | ≤ 0.2
84 | PVST | ≤ 0.2
85 | DRYD | ≤ 0.2
86 | GEEG | ≤ 0.2
87 | RWFM | ≤ 0.2
88 | QCSQ | 0.271
89 | TTAS | ≤ 0.2
90 | LLTP | ≤ 0.2
91 | GYGC | ≤ 0.2
92 | YLTH | ≤ 0.2
93 | YRAE | ≤ 0.2
94 | CMMR | ≤ 0.2
95 | RIHG | ≤ 0.2
96 | HNDT | ≤ 0.2

Row | Variant | one-hybrid fitness for binding NBS DNA
97 | NSWA | ≤ 0.2
98 | NPPM | ≤ 0.2
99 | EDGS | ≤ 0.2
100 | DTKW | ≤ 0.2
101 | DGPR | ≤ 0.2
102 | MISW | ≤ 0.2
103 | QADS | ≤ 0.2
104 | QYRM | 0.394
105 | SCNT | ≤ 0.2
106 | RVVW | ≤ 0.2
107 | PVSE | ≤ 0.2
108 | NTLD | ≤ 0.2
109 | WCHS | ≤ 0.2
110 | LATY | ≤ 0.2
111 | PWDL | ≤ 0.2
112 | RSIH | ≤ 0.2
113 | AHSG | ≤ 0.2
114 | QWQT | ≤ 0.2
115 | AKQA | ≤ 0.2
116 | SAVI | ≤ 0.2
117 | RFTN | ≤ 0.2
118 | ASEY | ≤ 0.2
119 | ACKN | ≤ 0.2
120 | AHNG | ≤ 0.2

Row | Variant | one-hybrid fitness for binding NBS DNA
121 | VPAI | ≤ 0.2
122 | QNCR | ≤ 0.2
123 | RFVM | ≤ 0.2
124 | TVVA | ≤ 0.2
125 | IHSR | ≤ 0.2
126 | ACCF | ≤ 0.2
127 | VWNG | ≤ 0.2
128 | LIRN | ≤ 0.2
129 | HLKG | ≤ 0.2
130 | GWTD | ≤ 0.2
131 | PSAN | ≤ 0.2
132 | MVPR | ≤ 0.2
133 | FPNM | ≤ 0.2
134 | QVID | ≤ 0.2
135 | PAPE | ≤ 0.2
136 | DGYW | ≤ 0.2
137 | TTPG | ≤ 0.2
138 | RPHR | ≤ 0.2
139 | RYDF | ≤ 0.2
140 | CGAV | ≤ 0.2
141 | GCTR | ≤ 0.2
142 | PQAW | ≤ 0.2
143 | CSKT | ≤ 0.2
144 | NQNS | ≤ 0.2

Row | Variant | one-hybrid fitness for binding NBS DNA
145 | DVDW | ≤ 0.2
146 | RDLQ | ≤ 0.2
147 | HAYA | ≤ 0.2
148 | LDST | ≤ 0.2
149 | RSWI | ≤ 0.2
150 | LPWM | ≤ 0.2
151 | GRPK | ≤ 0.2
152 | RHIW | ≤ 0.2
153 | CNRG | ≤ 0.2
154 | ARAI | ≤ 0.2
155 | PSVN | ≤ 0.2
156 | PQAR | ≤ 0.2
157 | RQQC | ≤ 0.2
158 | RGKS | 0.348
159 | DSPG | ≤ 0.2
160 | LWRS | ≤ 0.2
161 | LAWM | ≤ 0.2
162 | KLCD | ≤ 0.2
163 | QLWC | ≤ 0.2
164 | PRRG | ≤ 0.2
165 | SQTL | ≤ 0.2
166 | TFHR | ≤ 0.2
167 | CVLC | ≤ 0.2
168 | QLGL | ≤ 0.2

Row | Variant | one-hybrid fitness for binding NBS DNA
169 | MCCG | ≤ 0.2
170 | RRYD | ≤ 0.2
171 | VRKM | ≤ 0.2
172 | QHPL | ≤ 0.2
173 | GWDT | ≤ 0.2
174 | TQPF | ≤ 0.2
175 | IPSR | ≤ 0.2
176 | WLEC | ≤ 0.2
177 | RWKP | ≤ 0.2
178 | RAIM | ≤ 0.2
179 | ALRI | ≤ 0.2
180 | NARE | ≤ 0.2
181 | IISR | ≤ 0.2
182 | ESKM | ≤ 0.2
183 | LPGA | ≤ 0.2
184 | GIDG | ≤ 0.2
185 | LKAR | ≤ 0.2
186 | MHER | ≤ 0.2
187 | HISF | ≤ 0.2
188 | VKTW | ≤ 0.2
189 | QIRK | 0.212
190 | PTNQ | ≤ 0.2
191 | KKTC | ≤ 0.2
192 | LNMT | ≤ 0.2

Row | Variant | one-hybrid fitness for binding NBS DNA
193 | ECIE | ≤ 0.2
194 | KVPY | ≤ 0.2
195 | LISG | ≤ 0.2
196 | LQQM | ≤ 0.2
197 | FPGY | ≤ 0.2
198 | PRTC | ≤ 0.2
199 | RLVQ | ≤ 0.2
200 | DQLN | ≤ 0.2
201 | KLHC | ≤ 0.2
202 | SSYK | ≤ 0.2
203 | CTVI | ≤ 0.2
204 | VQES | ≤ 0.2
205 | FHHR | ≤ 0.2
206 | PQYY | ≤ 0.2
207 | ATRA | ≤ 0.2
208 | KPAC | ≤ 0.2
209 | NNIE | ≤ 0.2
210 | SQTN | ≤ 0.2
211 | RAPG | ≤ 0.2
212 | ILYR | ≤ 0.2
213 | KQSY | ≤ 0.2
214 | ARAW | ≤ 0.2
215 | DHWV | ≤ 0.2
216 | VLGI | ≤ 0.2

Row | Variant | one-hybrid fitness for binding NBS DNA
217 | KVYS | ≤ 0.2
218 | MSCR | ≤ 0.2
219 | TCKK | ≤ 0.2
220 | FQQR | ≤ 0.2
221 | QFTT | ≤ 0.2
222 | WCAS | ≤ 0.2
223 | QLLT | 0.33
224 | LHNA | ≤ 0.2
225 | LIME | ≤ 0.2
226 | ARCT | ≤ 0.2
227 | HNKT | ≤ 0.2
228 | HLVC | ≤ 0.2
229 | NWQG | ≤ 0.2
230 | RLCD | ≤ 0.2
231 | WKKS | ≤ 0.2
232 | DKKD | ≤ 0.2
233 | NMGM | ≤ 0.2
234 | NAAN | ≤ 0.2
235 | ATKH | ≤ 0.2
236 | SSQV | ≤ 0.2
237 | QYEW | ≤ 0.2
238 | PRVY | ≤ 0.2
239 | QINP | ≤ 0.2
240 | FSIR | ≤ 0.2

Row | Variant | one-hybrid fitness for binding NBS DNA
241 | SATD | ≤ 0.2
242 | MNNT | ≤ 0.2
243 | GAAL | ≤ 0.2
244 | RFLK | ≤ 0.2
245 | TNIR | ≤ 0.2
246 | YRWG | ≤ 0.2
247 | LKWS | ≤ 0.2
248 | RVRV | ≤ 0.2
249 | TRQE | ≤ 0.2
250 | QAQY | ≤ 0.2
251 | VFAY | ≤ 0.2
252 | QQEL | ≤ 0.2
253 | PDMG | ≤ 0.2
254 | HKAY | ≤ 0.2
255 | RPIR | ≤ 0.2
256 | PCLT | ≤ 0.2
257 | VNTS | ≤ 0.2
258 | WKDC | ≤ 0.2
259 | RIIV | ≤ 0.2
260 | IIVG | ≤ 0.2
261 | IPIE | ≤ 0.2
262 | HPVW | ≤ 0.2
263 | KDTM | ≤ 0.2
264 | AQDG | ≤ 0.2

Row | Variant | one-hybrid fitness for binding NBS DNA
265 | PYLL | ≤ 0.2
266 | PPID | ≤ 0.2
267 | GFQG | ≤ 0.2
268 | TQAR | ≤ 0.2
269 | RPKH | ≤ 0.2
270 | YRWT | ≤ 0.2
271 | KDLA | ≤ 0.2
272 | ECCC | ≤ 0.2
273 | WKKC | ≤ 0.2
274 | MVPN | ≤ 0.2
275 | FSPF | ≤ 0.2
276 | RTTD | ≤ 0.2
277 | SDLA | ≤ 0.2
278 | APQC | ≤ 0.2
279 | AMSR | ≤ 0.2
280 | MFWR | ≤ 0.2
281 | YPYG | ≤ 0.2
282 | MSYL | ≤ 0.2
283 | ILQL | ≤ 0.2
284 | PRHR | ≤ 0.2
285 | RVKY | 0.293
286 | RKDG | ≤ 0.2
287 | QHES | ≤ 0.2
288 | HACH | ≤ 0.2

Row | Variant | one-hybrid fitness for binding NBS DNA
289 | RNQI | ≤ 0.2
290 | RTEM | ≤ 0.2
291 | KGNQ | ≤ 0.2
292 | IIFS | ≤ 0.2
293 | FWNV | ≤ 0.2
294 | AAPM | ≤ 0.2
295 | ERDC | ≤ 0.2
296 | CPAS | ≤ 0.2
297 | QIHA | 0.201
298 | DAVF | ≤ 0.2
299 | SIFR | ≤ 0.2
300 | WKMS | ≤ 0.2
301 | QSCV | ≤ 0.2
302 | AYNK | ≤ 0.2
303 | AARE | ≤ 0.2
304 | FTSS | ≤ 0.2
305 | PYVN | ≤ 0.2
306 | CQDS | ≤ 0.2
